Measured values from the supplement of paper PMC11383711.
The other results are listed elsewhere or left out. Binding of human antibodies (heavy:light variable regions, tested as scFv in one mRNA-display pool) to influenza hemagglutinin, with or without the stem antibody CR9114 bound first. Score = (mean enrichment − median) / interquartile range of that screen; higher = more enriched, 0 = typical non-binder. Active = above the paper's cut-off per screen: stems 28; unblocked H1 Solomon Islands 5, H1 Michigan 3, H3 5, H5 19, H7 2.85, both B 5; blocked 9, 7, H5 10, H7 10, B Phuket 10, B Lee 11.5. Scores are scaled within each screen and are no affinities; replicates correlate at about 0.6 to 0.9, and antibodies rare in the pool are noisier.

B1: 039-10-4D04 (protein)
chain 1: QVQLVESGGGVVQPGTSLRLSCVVSGFPFRSYSIHWVRQAPGKGLEWVAVISYDGDNKYYADSVKGRFTISRDNSKKTAYLQMNSLRVDDTAIYFCARDPVEYSSVSYYFLYGMDVWGQGTTVTVSS
chain 2: QSVLTQPPSVSGAPGQRVTISCTGSSSNIGAGYDVHWYQQLPGTAPKLLIYGNINRPSGVPDRFSGSKSGTSASLAISGLQAEDEGDYYCQSYDNSLLLSVVFGSGTRLTVL
B2: antibody 4B04 (protein)
chain 1: VQLVESGGGVVQPGRSLRLSCAVSGFTFISYDMHWVRQAPGKGPEWMAYISYDGNRQYYADSVKGRFTISRDNSKNTLHLQMNSLKPEDTAVYSCAREFVPPGPDDYYFGLDVWGQGTTVTVSS
chain 2: EIVLTQSPATLSLSPGDRATLSCRASQSVGSYLAWYQQKPGQAPRLLIYDASKRATDIPARFSGSGSGTDFTLTISSLEPADFAIYYCQLRSDWPPGFTFGRGTKVEIK
B3: antibody 6F06 (protein)
chain 1: VQLVESGGGLVQPGRSLRLSCAASGFTFDDYAMHWVRQAPGKGLEWVSTISWGSAGVGYADSVKGRFTISRDNANSALYLQMSSLRPEDTALYYCAKDRGYSTSQDYYYYFGMDVWGQGTTVTVSS
chain 2: DIQMTQSPSSLSASVGDRVTITCQASQDINKYLIWYQQRPEKAPKLLIYDASNLETGVPSRFSGSGSGTDFTFTISNLQPEDIATYYCQQYESFPLTFGGGTKVEIK
B4: K77-1F11 (protein)
chain 1: QVQLVQSAAEVKKPGASVKVSCKASGYSFTSYQVHWVRQAPGQGLEWMGMIIPTPGSINYAQKFQGRVTMTRDTSTNTVYMEVSGLRSDDTAVYYCARRGSYISGHYTYYGMDVWGQGTTVTVSS
chain 2: EIVLTQSPGTLSLSPGERATLSCRASQSVSNSYLAWYQQRPGQAPRLLFYGASSRATGIPDRFSGYGSGTDFTLTISRLEPEDFAVYYCHHYGGSAGTFGQGTKVEIK
B5: W85-1C02 (protein)
chain 1: EVQVVESGGGLVQPGGSLRLSCAASGFTVSGNYMHWVRQAPGKGLEWVSVLYAGGRTYYADSVKGRFTISRDNSKNMLYLQMNSLSVEDTAVYYCAGLSLEWLDVWGQGTTVAVSS
chain 2: DIQMTQSPSSLSASVGDRVTITCRAGQNIASYLNWYQHRPGKAPRLLIFAASSLQTGVPSRFSGSGSGSDFTLTISSLQPEDFATYYCQQTYSFFLTFGGGTKVEVK
B6: antibody 3F01 (protein)
chain 1: EVQLVESGGGLVLPGRSLTLSCVASGFTYDDYAMHWVRQVPGKGLEWVAGISWDSVSIGYEDSLRGRFTISRDNAKNSLYLQINSLRDEDTAFYYCAKQGEMRGYDYRLHWFFDLWGRGTLVTVSS
chain 2: EIVLTQSPGTLSLSPGERATLSCRASQSVSSHLVWYQMKPGQAPRLLIYGASSRATGIPDRFSGSGSGTDFTLNIRRLEPEDFAVYFCQQFEDLPITFGRGTRLEIK

target: Influenza A H1N1 A/Michigan/45/2015 hemagglutinin ectodomain; experiment: mRNA display binding score; higher = more enriched on the antigen; conditions: antigen blocked with: 2 µM CR9114 IgG
Procedure: (§1)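 A pool of natively paired antibodies, displayed as scFv on mRNA, was selected once on antigen-coated beads and sequenced before and after; two replicates.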

| Binder | mRNA display binding score |
| --- | --- |
| B1 | inactive: 0.162 |
| B2 | inactive: 0.719 |
| B3 | inactive: 0.131 |
| B4 | inactive: 0.825 |
| B5 | inactive: -0.298 |
| B6 | inactive: 1.67 |

same assay, conditions: antigen blocked with: nothing

| Binder | mRNA display binding score |
| --- | --- |
| B1 | inactive: 0.202 |
| B2 | inactive: 0.0239 |
| B3 | inactive: -0.453 |
| B4 | inactive: 1.11 |
| B5 | inactive: -0.147 |
| B6 | inactive: 1.25 |

target: Influenza A H1N1 A/Solomon Islands/3/2006 hemagglutinin ectodomain; experiment: as above; conditions: antigen blocked with: 2 µM CR9114 IgG
Procedure: as §1

| Binder | mRNA display binding score |
| --- | --- |
| B1 | inactive: 0.294 |
| B2 | inactive: 1.16 |
| B3 | inactive: 0.0658 |
| B4 | inactive: 0.475 |
| B5 | inactive: 0.765 |
| B6 | inactive: 1.17 |

same assay, conditions: antigen blocked with: nothing

| Binder | mRNA display binding score |
| --- | --- |
| B1 | inactive: 0.243 |
| B2 | inactive: 0.772 |
| B3 | inactive: -0.087 |
| B4 | inactive: 0.652 |
| B5 | inactive: -0.592 |
| B6 | inactive: 1.4 |

target: Influenza A H3N2 A/Singapore/INFIMH-16-0019/2016 hemagglutinin ectodomain; experiment: as above; conditions: antigen blocked with: nothing
Procedure: as §1

| Binder | mRNA display binding score |
| --- | --- |
| B1 | inactive: 0.625 |
| B2 | inactive: -0.0884 |
| B3 | inactive: -0.23 |
| B4 | inactive: 1.09 |
| B5 | inactive: -0.082 |
| B6 | inactive: 2.16 |

target: Influenza A H5N1 A/Qinghai/1A/2005 hemagglutinin ectodomain; experiment: as above; conditions: antigen blocked with: 2 µM CR9114 IgG
Procedure: as §1

| Binder | mRNA display binding score |
| --- | --- |
| B1 | inactive: 0.164 |
| B2 | inactive: -0.0842 |
| B3 | inactive: -0.314 |
| B4 | inactive: 0.428 |
| B5 | inactive: 0.138 |
| B6 | inactive: 2.38 |

same assay, conditions: antigen blocked with: nothing

| Binder | mRNA display binding score |
| --- | --- |
| B1 | inactive: 0.204 |
| B2 | inactive: 0.14 |
| B3 | inactive: -0.204 |
| B4 | inactive: 0.294 |
| B5 | inactive: -0.51 |
| B6 | inactive: 1.18 |

target: Influenza A H7N9 A/Shanghai/2/2013 hemagglutinin ectodomain; experiment: as above; conditions: antigen blocked with: 2 µM CR9114 IgG
Procedure: as §1

| Binder | mRNA display binding score |
| --- | --- |
| B1 | inactive: -0.14 |
| B2 | inactive: -0.746 |
| B3 | inactive: 0.0873 |
| B4 | inactive: 1.59 |
| B5 | inactive: 0.177 |
| B6 | inactive: 1.54 |

same assay, conditions: antigen blocked with: nothing

| Binder | mRNA display binding score |
| --- | --- |
| B1 | inactive: 0.516 |
| B2 | inactive: -0.226 |
| B3 | inactive: -0.0172 |
| B4 | inactive: 1.53 |
| B5 | inactive: 0.0282 |
| B6 | inactive: 1.93 |

target: Influenza B/Lee/1940 hemagglutinin ectodomain; experiment: as above; conditions: antigen blocked with: 2 µM CR9114 IgG
Procedure: as §1

| Binder | mRNA display binding score |
| --- | --- |
| B1 | inactive: -0.567 |
| B2 | active: 16.1 |
| B3 | inactive: 0.805 |
| B4 | inactive: 0.3 |
| B5 | inactive: 1.63 |
| B6 | inactive: 9.74 |

same assay, conditions: antigen blocked with: nothing

| Binder | mRNA display binding score |
| --- | --- |
| B1 | inactive: -0.179 |
| B2 | active: 64.8 |
| B3 | inactive: 0.649 |
| B4 | inactive: 0.194 |
| B5 | inactive: 2.44 |
| B6 | active: 13.6 |

target: Influenza B/Phuket/3073/2013 hemagglutinin ectodomain; experiment: as above; conditions: antigen blocked with: 2 µM CR9114 IgG
Procedure: as §1

| Binder | mRNA display binding score |
| --- | --- |
| B1 | inactive: 0.159 |
| B2 | inactive: -0.236 |
| B3 | inactive: -0.0968 |
| B4 | inactive: 0.351 |
| B5 | inactive: -0.287 |
| B6 | inactive: 1.32 |

same assay, conditions: antigen blocked with: nothing

| Binder | mRNA display binding score |
| --- | --- |
| B1 | inactive: -0.136 |
| B2 | inactive: -0.0669 |
| B3 | inactive: 0.101 |
| B4 | inactive: 0.242 |
| B5 | inactive: -0.4 |
| B6 | inactive: 0.13 |
